From the supplement of paper PMC4604168 (melanoma cell lines)
Some of the results follow. Single values are uncertain, as repeats are few or missing.

Key:
Experiment in all cases: cell count relative to DMSO control; melanoma cells; higher = more viable cells
Conditions in all cases: library dose: low library concentration; 72 h
MZ2-MEL = system: MZ2-MEL
MeWo = system: MeWo
RPMI7951 = system: RPMI7951
RVH-421 = system: RVH-421
SkMel28 = system: SkMel28
SkMel2 = system: SkMel2
SkMel30 = system: SkMel30
UACC62 = system: UACC62
WM115 = system: WM115
WM1716 = system: WM1716
WM1745 = system: WM1745
WM3526 = system: WM3526
WM3619 = system: WM3619
WM451Lu = system: WM451Lu
SkMel5 = system: SkMel5
UACC257 = system: UACC257
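Also: cell number obtained by counting DAPI-stained nuclei in high-throughput microscope images with image analysis software, screen run in 1,536-well plates.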

O=C(/C=C/c1cccnc1)NCCCCC1CCN(C(=O)c2ccccc2)CC1 + CCCS(=O)(=O)Nc1ccc(F)c(C(=O)c2c[nH]c3ncc(Cl)cc23)c1F [PLX4720] (first compound 0.01 µM, partner dose 0.08 µM)
cell count (MZ2-MEL): 35.9% | cell count (MeWo): 99.1% | cell count (RPMI7951): 109% | cell count (RVH-421): 58.4% | cell count (SkMel28): 101% | cell count (SkMel2): 46.7% | cell count (SkMel30): 107% | cell count (UACC62): 105% | cell count (WM115): 108% | cell count (WM1716): 105% | cell count (WM1745): 98.3% | cell count (WM3526): 85.2% | cell count (WM3619): 82.7% | cell count (WM451Lu): 92.4%

O=C(/C=C/c1cccnc1)NCCCCC1CCN(C(=O)c2ccccc2)CC1 + C[C@@H](N)c1ccc(C(=O)Nc2ccnc3[nH]ccc23)cc1 [RKI983] (first compound 0.01 µM, partner dose 0.4 µM)
cell count (MZ2-MEL): 19.2% | cell count (MeWo): 88.7% | cell count (RPMI7951): 78.7% | cell count (RVH-421): 21.8% | cell count (SkMel28): 98.8% | cell count (SkMel2): 27.6% | cell count (SkMel30): 94% | cell count (UACC62): 90.1% | cell count (WM115): 107% | cell count (WM1716): 64.4% | cell count (WM1745): 90% | cell count (WM3526): 119% | cell count (WM3619): 74% | cell count (WM451Lu): 85.5%

O=C(/C=C/c1cccnc1)NCCCCC1CCN(C(=O)c2ccccc2)CC1 + CC1(C)CCC(c2ccc(Cl)cc2)=C(CN2CCN(c3ccc(C(=O)NS(=O)(=O)c4ccc(N[C@H](CCN5CCOCC5)CSc5ccccc5)c(S(=O)(=O)C(F)(F)F)c4)cc3)CC2)C1 [ABT263] (first compound 0.01 µM, partner dose 0.4 µM)
cell count (MZ2-MEL): 28.1% | cell count (MeWo): 78.5% | cell count (RPMI7951): 58.4% | cell count (RVH-421): 28.2% | cell count (SkMel28): 98.2% | cell count (SkMel2): 25.5% | cell count (SkMel30): 85.2% | cell count (UACC62): 103% | cell count (WM115): 89.9% | cell count (WM1716): 69.4% | cell count (WM1745): 18.1% | cell count (WM3526): 125% | cell count (WM3619): 48.7% | cell count (WM451Lu): 88.5%

O=C(/C=C/c1cccnc1)NCCCCC1CCN(C(=O)c2ccccc2)CC1 + COc1ccc(Cl)c(Nc2nc3ccccc3nc2NS(=O)(=O)c2cccc(NC(=O)C(C)(C)N)c2)c1 [XL147] (first compound 0.01 µM, partner dose 0.8 µM)
cell count (MZ2-MEL): 34.7% | cell count (MeWo): 97% | cell count (RPMI7951): 87.9% | cell count (RVH-421): 53.2% | cell count (SkMel28): 95.3% | cell count (SkMel2): 22% | cell count (SkMel30): 106% | cell count (UACC62): 118% | cell count (WM115): 97.9% | cell count (WM1716): 92.9% | cell count (WM1745): 99.4% | cell count (WM3526): 115% | cell count (WM3619): 77.3% | cell count (WM451Lu): 90.9%

O=C(/C=C/c1cccnc1)NCCCCC1CCN(C(=O)c2ccccc2)CC1 + Nc1ccn([C@@H]2O[C@H](CO)[C@@H](O)C2(F)F)c(=O)n1 [gemcitabine] (first compound 0.01 µM, partner dose 0.0004 µM)
cell count (MZ2-MEL): 39.4% | cell count (MeWo): 104% | cell count (RPMI7951): 95.3% | cell count (RVH-421): 54.6% | cell count (SkMel28): 89.6% | cell count (SkMel2): 34.5% | cell count (SkMel30): 116% | cell count (UACC62): 108% | cell count (WM115): 96.9% | cell count (WM1716): 97.4% | cell count (WM1745): 87.7% | cell count (WM3526): 106% | cell count (WM3619): 73.7% | cell count (WM451Lu): 101%

CC1(C)CCC(c2ccc(Cl)cc2)=C(CN2CCN(c3ccc(C(=O)NS(=O)(=O)c4ccc(N[C@H](CCN5CCOCC5)CSc5ccccc5)c(S(=O)(=O)C(F)(F)F)c4)cc3)CC2)C1 + C[C@]1(O)C[C@@H](c2nc(-c3ccc4ccc(-c5ccccc5)nc4c3)c3c(N)nccn32)C1 [OSI906] (first compound 0.4 µM, partner dose 0.4 µM)
cell count (MZ2-MEL): 84.1% | cell count (MeWo): 68.9% | cell count (RPMI7951): 62.1% | cell count (RVH-421): 66.3% | cell count (SkMel28): 74.9% | cell count (SkMel2): 70.9% | cell count (SkMel30): 66.3% | cell count (UACC62): 76.2% | cell count (WM115): 92.1% | cell count (WM1716): 85.8% | cell count (WM1745): 6.46% | cell count (WM3526): 67.2% | cell count (WM3619): 87.1% | cell count (WM451Lu): 76.5%

CC1(C)CCC(c2ccc(Cl)cc2)=C(CN2CCN(c3ccc(C(=O)NS(=O)(=O)c4ccc(N[C@H](CCN5CCOCC5)CSc5ccccc5)c(S(=O)(=O)C(F)(F)F)c4)cc3)CC2)C1 + CS(=O)(=O)c1ccc(C(=O)Nc2ccc(Cl)c(-c3ccccn3)c2)c(Cl)c1 [vismodegib] (first compound 0.4 µM, partner dose 1 µM)
cell count (MZ2-MEL): 83.8% | cell count (MeWo): 59.3% | cell count (RPMI7951): 55.3% | cell count (RVH-421): 84.3% | cell count (SkMel28): 123% | cell count (SkMel2): 85% | cell count (SkMel30): 81.5% | cell count (UACC62): 92.8% | cell count (WM115): 81.9% | cell count (WM1716): 72.6% | cell count (WM1745): 30.7% | cell count (WM3526): 116% | cell count (WM3619): 73.1% | cell count (WM451Lu): 105%

CC1(C)CCC(c2ccc(Cl)cc2)=C(CN2CCN(c3ccc(C(=O)NS(=O)(=O)c4ccc(N[C@H](CCN5CCOCC5)CSc5ccccc5)c(S(=O)(=O)C(F)(F)F)c4)cc3)CC2)C1 + Cn1nnc2c(C(N)=O)ncn2c1=O [temozolomide] (first compound 0.4 µM, partner dose 2 µM)
cell count (MeWo): 74.2% | cell count (RPMI7951): 49.5% | cell count (RVH-421): 73.8% | cell count (SkMel28): 93.4% | cell count (SkMel30): 67.8% | cell count (UACC62): 87.5% | cell count (WM115): 81.1% | cell count (WM1716): 63.1% | cell count (WM1745): 9.47% | cell count (WM3526): 93.3% | cell count (WM3619): 74.1% | cell count (WM451Lu): 80.6%

O=C(/C=C/c1cccnc1)NCCCCC1CCN(C(=O)c2ccccc2)CC1 + OCc1c[nH]c2ccccc12 [Indole-3-carbinol] (first compound 0.01 µM, partner dose 0.8 µM)
cell count (MZ2-MEL): 43.9% | cell count (MeWo): 90.2% | cell count (RPMI7951): 83.1% | cell count (RVH-421): 73% | cell count (SkMel28): 99.4% | cell count (SkMel2): 72.6% | cell count (SkMel30): 101% | cell count (UACC62): 82.7% | cell count (WM115): 95.2% | cell count (WM1716): 95.1% | cell count (WM1745): 103% | cell count (WM3526): 98.5% | cell count (WM3619): 85.4% | cell count (WM451Lu): 110%

CC1(C)CCC(c2ccc(Cl)cc2)=C(CN2CCN(c3ccc(C(=O)NS(=O)(=O)c4ccc(N[C@H](CCN5CCOCC5)CSc5ccccc5)c(S(=O)(=O)C(F)(F)F)c4)cc3)CC2)C1 + C=CCNC1=C2C[C@@H](C)C[C@H](OC)[C@H](O)[C@@H](C)/C=C(\C)[C@H](OC(N)=O)[C@@H](OC)/C=C\C=C(/C)C(=O)NC(=CC1=O)C2=O [Tanespimycin] (first compound 0.4 µM, partner dose 0.002 µM)
cell count (MeWo): 67.7% | cell count (RPMI7951): 58.8% | cell count (RVH-421): 70.9% | cell count (SkMel28): 117% | cell count (SkMel2): 88% | cell count (SkMel30): 71.5% | cell count (UACC62): 107% | cell count (WM115): 77.5% | cell count (WM1716): 74.5% | cell count (WM1745): 11% | cell count (WM3526): 90.9% | cell count (WM3619): 84.1% | cell count (WM451Lu): 80.3%

CC1(C)CCC(c2ccc(Cl)cc2)=C(CN2CCN(c3ccc(C(=O)NS(=O)(=O)c4ccc(N[C@H](CCN5CCOCC5)CSc5ccccc5)c(S(=O)(=O)C(F)(F)F)c4)cc3)CC2)C1 + COc1ccc2c(c1)CCC1C2CCC2(C)C(NCCCCCCN3C(=O)C=CC3=O)CCC12 [U73122] (first compound 0.4 µM, partner dose 0.4 µM)
cell count (MeWo): 71.5% | cell count (RPMI7951): 40.8% | cell count (RVH-421): 68.3% | cell count (SkMel28): 84.3% | cell count (SkMel30): 62.6% | cell count (SkMel5): 70.9% | cell count (UACC257): 71.9% | cell count (UACC62): 93.6% | cell count (WM115): 92.3% | cell count (WM1716): 67.3% | cell count (WM1745): 10.3% | cell count (WM3526): 68.4% | cell count (WM3619): 82.6% | cell count (WM451Lu): 70.8%

CC1(C)CCC(c2ccc(Cl)cc2)=C(CN2CCN(c3ccc(C(=O)NS(=O)(=O)c4ccc(N[C@H](CCN5CCOCC5)CSc5ccccc5)c(S(=O)(=O)C(F)(F)F)c4)cc3)CC2)C1 + Nc1cccc2c1CN(C1CCC(=O)NC1=O)C2=O [lenalidomide] (first compound 0.4 µM, partner dose 1 µM)
cell count (MeWo): 76.8% | cell count (RPMI7951): 49.7% | cell count (RVH-421): 73.4% | cell count (SkMel28): 99.5% | cell count (SkMel30): 83.9% | cell count (UACC62): 95% | cell count (WM115): 83.8% | cell count (WM1716): 71.9% | cell count (WM1745): 14% | cell count (WM3526): 86.9% | cell count (WM3619): 77.9% | cell count (WM451Lu): 91.7%

Cc1ccc(Nc2nccc(N(C)c3ccc4c(C)n(C)nc4c3)n2)cc1S(N)(=O)=O [Pazopanib] + CS(=O)(=O)CCNCc1ccc(-c2ccc3ncnc(Nc4ccc(OCc5cccc(F)c5)c(Cl)c4)c3c2)o1 [lapatinib] (first compound 0.4 µM, partner dose 0.8 µM)
cell count (MZ2-MEL): 65.7% | cell count (MeWo): 108% | cell count (RPMI7951): 67.5% | cell count (RVH-421): 99.3% | cell count (SkMel28): 103% | cell count (SkMel30): 66.9% | cell count (UACC62): 100% | cell count (WM115): 104% | cell count (WM1716): 93.8% | cell count (WM1745): 93.7% | cell count (WM3526): 96.1% | cell count (WM3619): 101% | cell count (WM451Lu): 90.6%
